{"source": "PubChem BioAssay AID1460", "about": "(National Center for Advancing Translational Sciences (NCATS), 2008)", "note": "Screen size: about 270,000 compounds; about 5,800 (2.1%) were called active. This list was built around the results that the source calls inconclusive (neither active nor inactive); the mix of calls is not that of the screen. The call rests on the fitted dose curve; in most records, active means well fitted inhibition curve with a large enough effect; inconclusive means small, poorly fitted or top-dose-only effect; inactive means flat fitted curve, though single readings scatter. Potencies of inconclusive entries are doubtful fits and often do not repeat. On the % scale 0 is the no-effect control and ±100 the full control effect; potency means the concentration at half of the fitted maximal effect; tags describe the fitted curve by direction and shape.", "data": [{"target": "Microtubule-associated protein tau (Homo sapiens) (UniProt P10636)", "sequence (P10636 whole entry, looked up, the tested form may be a part)": "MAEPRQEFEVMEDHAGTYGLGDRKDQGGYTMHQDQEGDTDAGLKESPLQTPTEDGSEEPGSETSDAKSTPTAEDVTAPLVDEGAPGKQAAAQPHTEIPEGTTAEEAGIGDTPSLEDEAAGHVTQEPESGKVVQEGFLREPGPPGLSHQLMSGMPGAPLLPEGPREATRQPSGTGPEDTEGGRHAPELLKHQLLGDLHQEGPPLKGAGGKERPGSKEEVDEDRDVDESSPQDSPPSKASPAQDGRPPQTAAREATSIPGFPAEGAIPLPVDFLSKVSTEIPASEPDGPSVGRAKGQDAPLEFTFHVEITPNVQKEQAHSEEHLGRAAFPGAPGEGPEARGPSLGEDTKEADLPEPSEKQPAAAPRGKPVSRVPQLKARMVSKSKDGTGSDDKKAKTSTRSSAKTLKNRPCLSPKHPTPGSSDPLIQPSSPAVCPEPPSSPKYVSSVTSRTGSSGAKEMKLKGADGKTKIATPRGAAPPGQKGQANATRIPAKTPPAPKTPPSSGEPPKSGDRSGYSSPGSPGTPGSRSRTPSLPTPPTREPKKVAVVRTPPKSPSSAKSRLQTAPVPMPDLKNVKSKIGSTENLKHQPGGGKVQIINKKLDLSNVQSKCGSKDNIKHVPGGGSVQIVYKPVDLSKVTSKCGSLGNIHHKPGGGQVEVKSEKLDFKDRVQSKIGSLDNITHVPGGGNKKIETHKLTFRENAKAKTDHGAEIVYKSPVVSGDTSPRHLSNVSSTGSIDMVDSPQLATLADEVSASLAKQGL", "experiment": "qHTS for Inhibitors of Tau Fibril Formation, Thioflavin T Binding; further: nearly all actives have a fitted effect of over 55% in size", "conditions": "recombinant tau K18 P301L (four-repeat tau fragment), heparin-induced fibrillization, ThT fluorescence; series mostly up to 57.4 µM", "how_it_was_run": "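K18 P301L tau (15 uM + 0.24 uM Alexa 594-tagged), heparin 20 uM, NaOAc pH 7, 6 h 37 C; ThT 30 uM, 1 h RT, ex 450/em 510 nm.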", "values": [{"smiles": "COc1ccc(OC)c(-c2c3cc(O)c(=O)cc-3oc3cc(O)c(O)cc23)c1", "Potency": "active: 3.16 µM"}, {"smiles": "O=C(CCSc1nnc(-c2ccncc2)o1)Nc1ccc(F)cc1", "Potency": "inconclusive: 17.8 µM [inhibitor, partial curve, poor fit]"}, {"smiles": "COc1ccc2nc(N/C(N)=N/C(=S)Nc3ccc(C)c(C)c3)nc(C)c2c1", "Potency": "inconclusive: 0.708 µM [inhibitor, full curve]"}, {"smiles": "Cc1ccc(S(=O)(=O)NC2=C(N3CCN(Cc4ccccc4)CC3)C(=O)c3ccccc3C2=O)cc1", "Potency": "inconclusive: 12.6 µM [inhibitor, partial curve]"}, {"smiles": "O=C1/C(=C/c2cccnc2)SC(=S)N1c1ccc(F)cc1", "Potency": "inconclusive: 25.1 µM [inhibitor, single point]"}, {"smiles": "O=C(Nc1ccon1)c1csc2c1CCCC2", "Potency": "inconclusive: 28.2 µM [inhibitor, partial curve, poor fit]"}, {"smiles": "COc1ccccc1/C=N/NC(=O)c1ccc(Cn2nc([N+](=O)[O-])cc2C)cc1", "Potency": "inactive"}, {"smiles": "c1ccc2c(c1)NC1(CCCC1)n1c-2nc2ccccc21", "Potency": "inconclusive: 17.8 µM [inhibitor, partial curve]"}, {"smiles": "Cc1cc(C(=O)COC(=O)C2=COCCO2)c(C)n1-c1ccc2c(c1)OCO2", "Potency": "inconclusive: 14.1 µM [inhibitor, partial curve]"}, {"smiles": "CCC(=O)Nc1ccc2nc(SCCOc3ccc(C)cc3)sc2c1", "Potency": "inconclusive: 0.794 µM [inhibitor, full curve]"}, {"smiles": "COc1ccc(C(C)=O)cc1COC(=O)c1cccc(N(C)C)c1", "Potency": "inconclusive: 31.6 µM [inhibitor, single point]"}, {"smiles": "O=C(NCc1ccc(Cl)cc1)c1cc(-c2ccco2)on1", "Potency": "inconclusive: 12.6 µM [inhibitor, partial curve]"}, {"smiles": "Cc1sc2ncn(CC(=O)N3CCN(c4ccc(Cl)cc4)CC3)c(=O)c2c1S(=O)(=O)N1CCN(c2ncccn2)CC1", "Potency": "inactive"}, {"smiles": "COc1ccccc1NC(=S)N(CCc1c(C)[nH]c2ccccc12)Cc1cccs1", "Potency": "inconclusive: 20 µM [inhibitor, single point]"}, {"smiles": "O=C(NCc1ccccc1)c1nc(S(=O)(=O)Cc2ccccc2)ncc1Cl", "Potency": "inconclusive: 3.16 µM [inhibitor, full curve]"}, {"smiles": "CN1CCc2nc3sc(C(=O)Nc4ccccc4OC(F)(F)F)c(N)c3cc2C1", "Potency": "inactive"}, {"smiles": "COC(=O)c1c(C)oc2ccc(N(C(=O)c3ccncc3)S(=O)(=O)c3c(C)cc(C)cc3C)cc12", "Potency": "inconclusive: 8.91 µM [inhibitor, partial curve]"}, {"smiles": "COC(=O)C1=C(C(=O)OC)[C@@H]2N(C)c3ccccc3[C@@]23C[C@@H](C(=O)OC)N(S(=O)(=O)c2ccc(OC)cc2)C3=N1", "activity, negative = inhibition": "inactive: 6.02% [at 11.5 µM]"}, {"smiles": "COc1cccc(-n2c(C)nn(CCOc3ccccc3)c2=O)c1", "Potency": "inactive"}, {"smiles": "COc1cc(NC(=O)CSc2nc3c(C)ccc(C)c3cc2C)c(C(=O)O)cc1OC", "Potency": "inconclusive: 35.5 µM [inhibitor, partial curve, poor fit]"}, {"smiles": "Cc1noc(C)c1COC(=O)CCN1c2ccccc2Sc2ccccc21", "Potency": "inconclusive: 35.5 µM [inhibitor, single point]"}, {"smiles": "Cc1ccsc1/C=C/c1ccc2cccc(O)c2n1", "Potency": "inconclusive: 7.08 µM [inhibitor, partial curve]"}, {"smiles": "Cc1cc(C(=O)N/N=C/c2ccc([N+](=O)[O-])o2)c(C)o1", "Potency": "inconclusive: 31.6 µM [inhibitor, single point]"}, {"smiles": "CC1=C(C(N)=O)C(c2ccc(C)o2)C(C(N)=O)=C(C)N1", "Potency": "inconclusive: 44.7 µM [inhibitor, single point]"}, {"smiles": "CC(C)(C)c1ccc(C(=O)NNc2cc(N3CCCCC3)nc(N3CCCCC3)n2)cc1", "Potency": "inconclusive: 11.2 µM [inhibitor, partial curve]"}, {"smiles": "CCCc1cc(=O)[nH]c(SCC(=O)c2ccc(S(=O)(=O)N3CCCC3)cc2)n1", "Potency": "inconclusive: 31.6 µM [inhibitor, single point]"}, {"smiles": "COc1ccc([N+](=O)[O-])cc1NC(=S)NC(C)=O", "Potency": "inactive"}, {"smiles": "COc1cc2c(cc1OC)Cc1cc(OC)c(OC)cc1Cc1cc(OC)c(OC)cc1C2", "Potency": "inconclusive: 22.4 µM [inhibitor, single point]"}, {"smiles": "CCOC(=O)c1cc2c(=O)n3ccccc3nc2n(Cc2ccco2)c1=NC(=O)c1c(F)cccc1Cl", "Potency": "inactive"}, {"smiles": "CCOC(=O)c1c(NC2OC(=O)c3c2ccc(OC)c3OC)sc(C(=O)OC(C)(C)C)c1C", "note": "(stereo unspecified)", "Potency": "inconclusive: 35.5 µM [inhibitor, single point]"}, {"smiles": "Cc1ccc(S(=O)(=O)NC(C(=O)Oc2cc3oc(=O)cc(C)c3cc2Cl)C(C)C)cc1", "note": "(stereo unspecified)", "Potency": "inconclusive: 39.8 µM [inhibitor, single point]"}, {"smiles": "COc1ccc(NC(=O)Cn2c(=O)n(-c3ccc(C)cc3)c(=O)c3c2cnn3C)cc1", "Potency": "inactive"}, {"smiles": "Cc1ccc(C)c(Cn2c(=O)cc(C)c3c(C)nn(-c4cccc(F)c4)c32)c1", "Potency": "inactive"}, {"smiles": "O=c1cc(-c2ccccc2Cl)oc2c([N+](=O)[O-])ccc(O)c12", "Potency": "inconclusive: 7.94 µM [inhibitor, single point]"}, {"smiles": "COC(=O)c1cnc(Nc2ccc(Cl)cc2)c([N+](=O)[O-])c1", "Potency": "inconclusive: 0.794 µM [inhibitor, full curve]"}, {"smiles": "COc1cc2cc(C(c3nnnn3Cc3ccc(F)cc3)N3CCCCCC3)c(=O)[nH]c2cc1OC", "note": "(stereo unspecified)", "Potency": "inconclusive: 5.01 µM [inhibitor, single point]"}, {"smiles": "CC1=C(C(=O)OCC2CCCO2)C(c2ccc(C)o2)C2=C(CC(c3ccc(N(C)C)cc3)CC2=O)N1", "note": "(stereo unspecified)", "Potency": "inconclusive: 39.8 µM [inhibitor, partial curve]"}, {"smiles": "COc1ccc(N2C(=O)C(Cl)=C(Oc3cccc(OC)c3)C2=O)cc1", "Potency": "active: 14.1 µM"}, {"smiles": "O=[N+]([O-])c1nn(-c2ccc(Cl)cc2)n(O)c1=NCc1ccccc1Cl", "Potency": "inconclusive: 17.8 µM [inhibitor, partial curve]"}, {"smiles": "Cc1cccc(C(=O)Nc2c(C(=O)NCc3ccc(Cl)cc3)sc3nc(C)cc(C)c23)c1", "Potency": "inactive"}, {"smiles": "CCOC(=O)C1=C(C)NC2=C(C(=O)c3ccccc32)C1c1cccnc1", "note": "(stereo unspecified)", "Potency": "inconclusive: 2.51 µM [inhibitor, full curve]"}]}]}
